Test results published in PubChem BioAssay AID1645882 (National Center for Advancing Translational Sciences (NCATS), 2021).
In all, about 16,000 compounds went through this assay and about 120 (0.75%) were called active. Another 4% or so got no clear call; they are omitted. Calls come from the whole dose curve; as a rule, active = well fitted inhibition curve with a large enough effect; inconclusive = small, poorly fitted or top-dose-only effect; inactive = no such curve, though single readings can be large or run the other way. This is one part of the list. *1 amine or outer side, *2 acyl side, *3 side chain or, on linkers, in order; H or OH if unused. Where a SMILES comes first, the peptide text is derived from it. Bridges are numbered along the chain shown (N, C = ends). [ ]: non-standard residue; d: D form. The star is where a group is joined. X6 = NC1=N[C@@H](O)C[C@H]([C@H](N[*:1])C(=O)[*:2])N1; ΔAla(3-NHCONH2) = NC(=O)NC=C(N)C(=O)O; β3hOrn = NCCC[C@H](N)CC(=O)*; Dap = NC[C@H](N)C(=O)O

target: Rap guanine nucleotide exchange factor 3 (Homo sapiens) (UniProt O95398); experiment: Validation qHTS for antagonist of cAMP-regulated guanine nucleotide exchange factor 3 (EPAC1); conditions: EPAC1 Rap1B-BODIPY-GDP exchange, fluorescence; series mostly up to 150 µM; activity change, negative = inhibition: at the top concentration;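 note: plate controls were DMSO for no effect and ATA control for full effect; nearly all actives have a fitted effect of over 75% in size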
UniProt O95398, sequence (O95398 whole entry, looked up): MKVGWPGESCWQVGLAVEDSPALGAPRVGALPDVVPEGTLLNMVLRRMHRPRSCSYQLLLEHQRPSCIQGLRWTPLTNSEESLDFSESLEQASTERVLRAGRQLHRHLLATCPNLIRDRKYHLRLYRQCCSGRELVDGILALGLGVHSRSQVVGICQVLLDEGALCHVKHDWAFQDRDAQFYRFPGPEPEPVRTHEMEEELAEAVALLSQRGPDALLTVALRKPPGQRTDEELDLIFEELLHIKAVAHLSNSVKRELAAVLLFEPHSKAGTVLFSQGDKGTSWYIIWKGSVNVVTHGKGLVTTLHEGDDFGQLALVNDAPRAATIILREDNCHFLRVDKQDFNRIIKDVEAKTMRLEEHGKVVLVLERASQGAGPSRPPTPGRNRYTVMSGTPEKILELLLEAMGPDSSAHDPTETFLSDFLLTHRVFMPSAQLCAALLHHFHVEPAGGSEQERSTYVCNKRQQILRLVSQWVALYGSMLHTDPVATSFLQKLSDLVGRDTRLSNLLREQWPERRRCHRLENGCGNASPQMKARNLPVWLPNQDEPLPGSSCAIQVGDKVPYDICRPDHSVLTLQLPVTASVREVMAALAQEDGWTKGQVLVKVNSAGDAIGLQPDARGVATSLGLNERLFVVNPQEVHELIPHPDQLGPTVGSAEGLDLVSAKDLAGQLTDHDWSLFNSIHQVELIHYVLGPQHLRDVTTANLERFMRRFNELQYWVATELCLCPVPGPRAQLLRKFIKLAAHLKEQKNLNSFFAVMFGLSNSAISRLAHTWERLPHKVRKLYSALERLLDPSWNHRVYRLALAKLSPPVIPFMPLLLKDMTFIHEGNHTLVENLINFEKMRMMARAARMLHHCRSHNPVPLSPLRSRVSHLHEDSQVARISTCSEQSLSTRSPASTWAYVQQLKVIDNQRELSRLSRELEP
Summary of the method: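 EPAC1 (100 nM) mixed with 250 nM RAP1B-BODIPY-GDP and 50 uM GDP; compounds in concentration series, 5 min at room temperature. Fluorescence (ex 480/em 540 nm) read every 5 min for 30 min; normalized to ATA control and DMSO.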

Activity change, negative = inhibition, inactive:
Cc1cccc(CNc2cc(-c3cccnc3)ncn2)c1 23.9%
O=c1cnc2cnc(Oc3ccccc3)nc2n1Cc1cccs1 0.937%
CC1CC(O)CC(C)(C)C1 (centres undefined) -4.77%
CCC(C)[C@H]1O[C@]2(C=C[C@@H]1C)C[C@@H]1C[C@@H](C/C=C(\C)[C@@H](O[C@H]3C[C@H](OC)[C@@H](O[C@H]4C[C@H](OC)[C@H](NC(C)=O)[C@H](C)O4)[C@H](C)O3)[C@@H](C)/C=C/C=C3\CO[C@@H]4[C@H](O)C(C)=C[C@@H](C(=O)O1)[C@]34O)O2 (some centres undefined) 8.43%
CC(C)=CCC/C(C)=C/CC/C(C)=C/CC/C(C)=C/CC/C(C)=C/CC/C(C)=C/CC/C(C)=C/CC/C(C)=C/CC/C(C)=C/CO -6.56%
Cn1cccc1C(=O)N1CCC2(CC1)CN(c1ccncc1)C2 14.7%
FC(F)(F)C(F)(F)C(F)(F)C(F)(F)C(F)(F)F 0.495%
O=S1(=O)OC(c2ccc(O)cc2)(c2ccc(O)cc2)c2ccccc21 0.463%
COc1ccc(Oc2ncc3nc(C)c(=O)n(Cc4cccc(OC)c4)c3n2)cc1 3.09%
CCCCNc1ccc(C(=O)OCCOCCOCCOCCOCCOCCOCCOCCOCCOC)cc1 7.6% [at 75.8 µM]
CCOC(=O)CCCCCCCCCCCCC1C=CCC1 (centres undefined) 12.5%
COc1ccc(O)c(CN2CCC3(CCC(CNC(=O)c4ccco4)O3)CC2)c1 (centres undefined) 9.35%
COc1ccc2[nH]c(C)cc2c1 16.4%
c1ccc(CNc2cc(-c3ccoc3)ncn2)cc1 13.6%
CCn1nc(C(=O)O)c(=O)c2cc3c(cc21)OCO3
O=C(O)C(S)C(S)C(=O)O (centres undefined) 16.8%
CCCCN1CCC(CCC(=O)c2cc(Cl)c(N)cc2OC)CC1
COc1cc2c(cc1OC)C(c1ccc(N)cc1)=NNC(=O)C2
Cc1onc(-c2ccccc2Cl)c1C(=O)NC1C(=O)N2C1SC(C)(C)C2C(=O)O (centres undefined) 23.1%
Cc1cc(/C=C/c2ccc3cc(N(C)C)ccc3[n+]2C)c(C)n1-c1ccccc1 11% [at 75.8 µM]
CC(C(=O)O)c1ccc(N2Cc3ccccc3C2=O)cc1 (centres undefined) 16.8%
CO[C@@]12[C@H](COC(N)=O)C3=C(C(=O)C(C)=C(N)C3=O)N1C[C@@H]1N[C@@H]12 1.16%
NCCC[C@H](N)CC(=O)N[C@H]1CNC(=O)[C@H]([C@H]2C[C@H](O)N=C(N)N2)NC(=O)C(=CNC(N)=O)NC(=O)[C@H](CO)NC(=O)[C@H](CO)NC1=O (β3hOrn-[Dap]SS[ΔAla(3-NHCONH2)][X6]; lactam 1-C) 23.2% [at 39.6 µM]
COc1ccccc1CCn1c(=O)c(-c2cn(C)c3ccccc23)nc2cncnc21 -16.4%
O=C(c1ccccc1)C(c1ccccc1)[n+]1csc2ccccc21 (centres undefined) 8.41%
CC(NN)c1ccccc1 (centres undefined) 21.6%
COc1cc(-c2noc(C)c2/C=C/c2ccc(N)cc2)cc(OC)c1OC -13.7%
COc1ccc(C(=O)N2CCC[C@@]3(CCN(C)C3)C2)cc1 20.8%
CN1CCCN(C(=O)[C@@H]2C[C@@H](Sc3nc4ccccc4[nH]3)CN2Cc2ccc(OC(F)(F)F)cc2)CC1 -2.69%
C#C[C@@]1(O)CCC2C3CCc4cc(O)ccc4C3CC[C@@]21C (some centres undefined) 16.2%
Cc1c(C(=O)N2CCCC(C)C2)sc2ncnc(NCCN3CCCCC3)c12 (centres undefined) 19.3%
N[C@]1(C(=O)O)CCc2cc(C(=O)O)ccc21 -9.44%
COC(=O)C1=C(C)NC(C)=C(C(=O)OCCCN2CCC(c3ccccc3)(c3ccccc3)CC2)[C@H]1c1cccc([N+](=O)[O-])c1 -15.4%
Cc1ccc(Cl)c(Nc2ccccc2C(=O)O)c1Cl
CC(C)C[C@@H](CO)N1CCN(Cc2ccccc2)CCC1=O
Cn1cccc1C(=O)N1CCC[C@@]2(CCN(C(c3ccccc3)c3ccccc3)C2)C1 0.23%
COc1ccc(OC)c(C(=O)N2CCc3c(cnc(C)c3CNS(=O)(=O)N(C)C)C2)c1 2.11%
O=C(NCCO[N+](=O)[O-])c1cccnc1 21.8%
CCN1CCN(C(=O)N[C@@H](C(=O)N[C@@H]2C(=O)N3C(C(=O)O)=C(CSc4nnnn4C)CS[C@H]23)c2ccc(O)cc2)C(=O)C1=O 17.6%
CN(C)CCOc1ccc(/C(=C(/CCCl)c2ccccc2)c2ccccc2)cc1 -1.85%
COCCn1c(=O)c(-c2cccs2)nc2cnc(N3CCOCC3)nc21 30.5%
CCCn1c(=O)c2c(ncn2C)n(CCC)c1=O
COc1cccc(CNC(=O)c2c(OC)cc(=O)n3c2CCN(C(=O)c2cc(F)cc(F)c2)CC3)c1 6.11%
C[C@H]1C[C@H]2[C@@H]3CCC4=CC(=O)C=C[C@]4(C)[C@@]3(F)[C@@H](O)C[C@]2(C)[C@@]1(O)C(=O)CO 7.1%
COc1cccc(Cn2c(=O)c(CCc3ccccc3)nc3cnc(OC)nc32)c1 15%
CC(C)C1=CC2=CC[C@@H]3[C@](C)(CCC[C@@]3(C)C(=O)O)[C@H]2CC1 18.1%
COc1cccc(-c2cncnc2Nc2ccccc2)c1 18.4%
COc1ccccc1CNc1cc(-c2ccccc2Cl)ncn1 -19.8%
CN(C)c1ncc2nc(-c3cccs3)c(=O)n(C[C@H]3CCCO3)c2n1 33.1%
CNC(=O)[C@H](Cc1c[nH]c2ccccc12)NC(=O)[C@@H](CC(=O)NO)CC(C)C
COc1cc(O)c2c(=O)cc(-c3ccccc3)oc2c1 11.6%
CC(C)C[C@@H](COc1ccccc1)N1CCN(CCc2ccccc2)CCC1=O -6.14%
COc1ccc(OC)c(-c2ccc(O)c(CN3CCc4c([nH]c5ccccc45)C3)c2)c1 -6.49%
c1ccc(CNc2ccnc(-c3ccoc3)n2)cc1 23.9%
CC(=O)OCC(=O)[C@@]1(O)CC[C@H]2[C@@H]3CCC4=CC(=O)CC[C@]4(C)C3=CC[C@@]21C 18.9%
COC(=O)CNC(=O)C(=O)OC 22.7% [at 15.3 µM]
COCCn1c(=O)c(-c2ccc(F)cc2)nc2cnc(Oc3ccccc3)nc21 15.1%
COC(=O)[C@H]1Cc2c([nH]c3ccccc23)CN1C(=O)COc1ccc2c(C)cc(=O)oc2c1 -0.141%
COC(=O)c1cn([C@@H]2C[C@@H](C(=O)N3CCCCCC3)N(Cc3cc4ccccc4s3)C2)nn1 12.2%
C=Nc1ccc(/C=C/c2ccnc3ccccc23)cc1 15.3%
CN(C)c1nc(-c2ccccc2C(F)(F)F)nc2ccccc12 11.8%
Oc1ccc(OCc2ccccc2)cc1 1.65% [at 75.8 µM]
COc1cc(NS(C)(=O)=O)ccc1Nc1c2ccccc2nc2ccccc12
CN1c2c(nc(N)[nH]c2=O)NCC1CNc1ccc(C(=O)NC(CCC(=O)O)C(=O)O)cc1 (centres undefined) 11.9%
CCN1CCC[C@H]1CNC(=O)c1c(OC)ccc(Br)c1OC
O=C(C[N+]12CCCc3cccc(c31)CCC2)c1ccc2ccccc2c1 7.52%
C#CCCCCCCCCCCCc1ccco1 4.7%
CC(NC(=O)c1cc(F)ccc1F)c1nnc2n1CCN(Cc1ccco1)CC2 (centres undefined) 9.66%
O=C1C2CC3CC1CC(O)(C3)C2 -7.38%
O=[n+]1ccn([O-])c2ccccc21 12.2%
CS(=O)(=O)N1CCC2(CCCN(C(c3ccccc3)c3ccccc3)C2)CC1 -11.7%
COCCN1CCN(C(=O)c2cnn(-c3nccc(-c4ccccc4F)n3)c2-c2ccco2)CC1 11.9%
COc1ccc2ccccc2c1CN1CCOc2ccc(CN3CCN(CCO)CC3)cc2C1 1.83%
COC(=O)C1=COC(O[C@H]2OC(CO)[C@H](O)C(O)C2O)[C@H]2C1C(=O)C[C@@H]2C (some centres undefined) 10.7%
N=C(N)S/C=C\C(=O)O
Cc1nnc(NS(=O)(=O)c2ccc(N)cc2)s1
COc1ccccc1-c1ccnc(-n2ncc(C(=O)N(C)C(C)c3nc(C)cs3)c2C2CC2)n1 (centres undefined) 12.8%
COc1ccc2c(c1)CCc1cnc(-n3ncc(C(=O)NC4CCOC4)c3C3CC3)nc1-2 (centres undefined) 1.5%
COc1ccccc1-c1cncnc1N(C)Cc1ccco1 6.95%
CCC1CN(CCNC(=O)c2cccnc2OC)Cc2cc(OC)ccc2O1 (centres undefined) 6.61%
O=C(Nc1ccccc1)N1CCCC2(CCN(C(=O)c3cc(C(F)(F)F)cc(C(F)(F)F)c3)CC2)C1 -11%
CN(C)c1ccc(/C=C2/C(=O)Nc3ccccc32)cc1 -18.9%
COc1cc(=O)n2c(c1C(=O)NC(C)c1ccco1)CCN(C(=O)c1ccccc1SC)CC2 (centres undefined) 13.1%
Clc1ccccc1-c1cc(NCCN2CCOCC2)ncn1 1.54%
O=C(C[N+]12CN3CN(CN(C3)C1)C2)c1ccc(I)cc1 10.1%
CC1CC(OC(=O)C(O)c2ccccc2)CC(C)(C)N1C (centres undefined)
OC[C@H]1O[C@@H](n2cnc3c(NCc4ccco4)ncnc32)[C@H](O)[C@@H]1O
CC(C)CCOC(=O)c1ccc(N(C)C)cc1 4.17%
COCC(=O)Nc1cc(C(=O)N2CCc3c([nH]c4ccccc34)C2)cc2nc(-c3ccccc3)n(C)c12 3.91%
COCC(=O)N1CCC2(CCCN(Cc3ccccc3)C2)CC1 5.89%
N[C@@]1(C(=O)O)CN[C@H](C(=O)O)C1 -18.6%
O=S(=O)(c1ccccc1)N1CCC2(CCCN(Cc3cc(C(F)(F)F)cc(C(F)(F)F)c3)C2)CC1 -2.48%
O=C(O)C[C@H]1c2ccc(C(F)(F)F)cc2S(=O)(=O)N1C1CCCCC1 14.4%
C=CCCCCCCCCCCC/C=C/C(O)COC(C)=O (centres undefined) 0.685%
CCCCCCCCCCCCN1[C@@H](CC(=O)OC)c2cc(C(F)(F)F)ccc2S1(=O)=O -0.938%
CCCCCCCC/C=C/CCCCCCCCOP(=O)([O-])OCC[N+](C)(C)C 4.43%
FC(F)(F)c1ccccc1-c1nccc(NCc2cccs2)n1 -7.29%
CC(=O)OCC(OC(C)=O)C(OC(C)=O)C(OC(C)=O)C(OC(C)=O)C(COC(C)=O)OC(C)=O (centres undefined) 6.6%
C=CCN(C(C(=O)OC)C(C)C)S(=O)(=O)CCNCc1ccccc1 (centres undefined) 10.7%
